The campaign covered roughly 16,000 compounds. About 120 (0.75%) were called active. Not shown: some 4% with an inconclusive outcome. Calls come from the whole dose curve; as a rule, active = well fitted inhibition curve with a large enough effect; inconclusive = small, poorly fitted or top-dose-only effect; inactive = no such curve, though single readings can be large or run the other way. This is one part of the list. *1 amine or outer side, *2 acyl side, *3 side chain or, on linkers, in order; H or OH if unused. Where a SMILES comes first, the peptide text is derived from it. Bridges are numbered along the chain shown (N, C = ends). Roman numbers before positions name the chains, in order. [ ]: non-standard residue; d: D form. The star is where a group is joined. Actinocin(9to1) = Cc1c2oc3c(C)ccc(C(=O)[*:1])c3nc-2c(C(=O)[*:2])c(N)c1=O; aThr = C[C@H](O)[C@H](N)C(=O)O; NMeV = CN[C@H](C(=O)O)C(C)C; Cbz = O=C(OCc1ccccc1)*; Sar = CNCC(=O)O; CH2F = FC*
target: Rap guanine nucleotide exchange factor 3 (Homo sapiens) (UniProt O95398); test: Validation qHTS for antagonist of cAMP-regulated guanine nucleotide exchange factor 3 (EPAC1); settings: EPAC1 Rap1B-BODIPY-GDP exchange, fluorescence; series mostly up to 150 µM; activity change, negative = inhibition: at the top concentration;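 note: plate controls were DMSO for no effect and ATA control for full effect; nearly all actives have a fitted effect of over 75% in size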
UniProt O95398, sequence (O95398 whole entry, looked up): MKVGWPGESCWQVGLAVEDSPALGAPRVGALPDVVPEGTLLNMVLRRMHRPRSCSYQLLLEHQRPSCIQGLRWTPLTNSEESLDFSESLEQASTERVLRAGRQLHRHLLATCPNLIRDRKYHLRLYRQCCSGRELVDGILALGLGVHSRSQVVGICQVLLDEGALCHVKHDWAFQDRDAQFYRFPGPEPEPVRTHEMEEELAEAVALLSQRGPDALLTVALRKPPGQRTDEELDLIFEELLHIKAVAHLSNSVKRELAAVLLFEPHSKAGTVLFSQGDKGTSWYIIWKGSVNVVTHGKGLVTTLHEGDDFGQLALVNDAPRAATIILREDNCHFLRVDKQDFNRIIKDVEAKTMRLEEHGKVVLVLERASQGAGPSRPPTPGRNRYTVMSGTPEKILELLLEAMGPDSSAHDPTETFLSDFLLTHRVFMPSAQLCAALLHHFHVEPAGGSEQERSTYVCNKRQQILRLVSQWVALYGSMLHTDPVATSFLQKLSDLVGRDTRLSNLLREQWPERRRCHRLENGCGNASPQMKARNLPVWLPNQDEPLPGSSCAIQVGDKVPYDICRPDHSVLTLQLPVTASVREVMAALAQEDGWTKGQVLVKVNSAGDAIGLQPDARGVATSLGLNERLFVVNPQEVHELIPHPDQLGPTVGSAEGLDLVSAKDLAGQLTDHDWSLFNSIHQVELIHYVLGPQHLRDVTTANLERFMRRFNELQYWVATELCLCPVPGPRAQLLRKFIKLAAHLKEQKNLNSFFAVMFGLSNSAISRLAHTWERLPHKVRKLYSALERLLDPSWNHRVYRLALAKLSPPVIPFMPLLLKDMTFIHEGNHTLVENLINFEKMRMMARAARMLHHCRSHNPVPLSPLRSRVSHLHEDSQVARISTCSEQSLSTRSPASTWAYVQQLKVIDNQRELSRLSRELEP
In short: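 EPAC1 (100 nM) mixed with 250 nM RAP1B-BODIPY-GDP and 50 uM GDP; compounds in concentration series, 5 min at room temperature. Fluorescence (ex 480/em 540 nm) read every 5 min for 30 min; normalized to ATA control and DMSO.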

Activity change, negative = inhibition, inactive:
COc1cccc(Nc2ncc3nc(-c4cccs4)c(=O)n(CCC#N)c3n2)c1 38.1%
CC1O[C@@H](O[C@@H]2C(O)C[C@H](O[C@@H]3C(O)C[C@@H](OC4CC[C@@]5(C)C6CC(O)[C@@]7(C)C(C8=CC(=O)OC8)CC[C@@]7(O)C6CC[C@@H]5C4)OC3C)OC2C)CC(O)[C@H]1O (some centres not stated) 14.6%
C[C@H]1CC2C3CCC4=CC(=O)C=C[C@]4(C)[C@@]3(Cl)[C@@H](O)C[C@]2(C)[C@@]1(O)C(=O)CO (some centres not stated) 4.46% [at 75.8 µM]
Cc1onc(-c2ccccc2)c1-c1ccc(S(N)(=O)=O)cc1 11.5%
O=c1cnc2cnc(N3CCOCC3)nc2n1C1CC1 2.36%
O=C(Nc1ccccc1)N1CCCC2(CCN(C(=O)c3cccc(F)c3)CC2)C1 6.25%
CC1=C(CC(=O)O)c2cc(F)ccc2/C1=C\c1ccc(S(C)=O)cc1 (configuration not stated)
CC(=O)N1CCC2(CCN(Cc3ccc(C#N)cc3)CC2)CC1 13%
CCC(=O)N[C@@H]1c2ccccc2C2(CCN(Cc3ccccn3)CC2)[C@H]1OC 10.4%
CC[N+]1(CC)CCC(=C(c2ccccc2)c2ccccc2)C1C (configuration not stated) 29.2%
COCC(=O)N1CCC2(CC1)CN(C(c1ccccc1)c1ccccc1)C2 1.39%
CCCc1cc(=O)[nH]c(=S)[nH]1
COc1ccc(C(=O)N2CCC3(CC2)CN(c2ccccn2)C3)cc1 12.9%
Cc1ccc(CN2[C@H]3CCCC[C@@H]3OCCS2(=O)=O)cc1 -2%
O=S(=O)(N(Cc1ccccc1)[C@H](CO)Cc1ccccc1)N(Cc1ccccc1)[C@H](CO)Cc1ccccc1 6.54%
N#CCCn1c(=O)c(-c2ccccc2)nc2cnc(OCc3ccccc3)nc21 9.4%
Cn1cnc2nc(NCCO)nc(NCc3ccccc3)c21 27.8%
O=c1[nH]c(=O)c2[nH]c(=O)[nH]c2[nH]1
CN=C1N[C@H](c2ccccc2)N(c2ccccc2)S1 -0.126%
Nc1nc(OCc2ccccc2)c2[nH]cnc2n1 3.95% [at 75.8 µM]
COc1ccc(CN2CCOc3ccc(CN4CCC(Oc5cccnc5)CC4)cc3C2)c(F)c1 7.6%
CCCCC(=O)O
Cc1c2oc3c(C)ccc(C(=O)N[C@@H]4C(=O)N[C@@H](C(C)C)C(=O)N5CCC[C@@H]5C(=O)N(C)CC(=O)N(C)[C@@H](C(C)C)C(=O)O[C@H]4C)c3nc-2c(C(=O)N[C@@H]2C(=O)N[C@@H](C(C)C)C(=O)N3CCC[C@@H]3C(=O)N(C)CC(=O)N(C)[C@@H](C(C)C)C(=O)O[C@H]2C)c(N)c1=O (I: [aThr]V[dP][Sar][NMeV] / II: [aThr]V[dP][Sar][NMeV]; ester I:1-I:C, II:1-II:C; linker I:N-II:N via Actinocin(9to1)) -8.52%
CN(C)c1ccc(/C=C/c2cc(N(C)C)nc3ccccc23)cc1 -0.19%
c1ccc2c(Cc3c[nH]c4ccccc34)c[nH]c2c1 -12.5%
Cc1sc(N)c(C(=O)c2cccc(C(F)(F)F)c2)c1C -29.6%
COc1ccc(OC)c2c(=S)c3ccccc3[nH]c12 -19.8%
CN(C)Cc1ccccc1-c1ccc2ncnc(NCc3ccccc3)c2c1 28.6%
COC(=O)[C@@H]1CCCN1Cc1ccc2c(c1)CN(Cc1cc(OC)c3c(c1)OCO3)CCO2 2.66%
CCCN[C@@H]1C(=O)N2C(C(=O)OCCC)=C(C)CS[C@H]12 -14.6%
CN(Cc1cnc2ccccn12)C(=O)c1cc(NC(=O)c2ccccc2)cc2ncn(C3CCCC3)c12 -3.58%
CO/N=C(\C(=O)N[C@@H]1C(=O)N2C(C(=O)OCOC(=O)C(C)(C)C)=C(/C=C\c3scnc3C)CS[C@H]12)c1csc(N)n1 18%
Cc1ccccc1-c1cc(N2CCNCC2)ncn1 15.4%
CCC(C(=O)OCCOCCN(CC)CC)c1ccccc1 (configuration not stated) 13.5%
S=C(S)OC1CC2CC1C1CCCC21 (configuration not stated) -9.81% [at 75.8 µM]
CC[N+]1(CC(=O)c2ccc(OC)cc2)CCCCC1 15.6%
COc1ccccc1-c1nc(N2CCN(C)CC2)c2ccccc2n1 0.0166%
O=c1cc(-c2ccccc2F)[nH]c2cc3c(cc12)OCO3 26.5% [at 75.8 µM]
O=[N+]([O-])c1ccc(-c2nc(-c3ccc(F)cc3)c(-c3ccncc3)[nH]2)cc1 1.72% [at 75.8 µM]
COC(=O)c1cccnc1 -11%
CN(C)c1ncc2nc(-c3cc(F)cc(F)c3)c(=O)n(C3CC3)c2n1 4.54%
Cc1ccc(SCCN2CCC(C)CCC2=O)cc1 (configuration not stated) 4.59%
OC(CN1CCCC1)c1ccccc1 (configuration not stated) 18.5%
O=S1(=O)CCOC[C@H](c2ccccc2)N1Cc1cccc(Cl)c1 -14.2%
CC1(C)CCC(=O)N2CC[C@H]3C[C@H](OC(=O)Nc4ccccc4)C[C@@H]1[C@H]32 -11.9%
COc1ccccc1-c1cc2c(c(OC)c1)OCCN(C(=O)Cn1nc(-c3ccccc3)c3ccccc3c1=O)C2 5.74%
C=C[C@@H]1c2cc(C)ccc2N(S(=O)(=O)c2ccc(C)cc2)[C@H](c2ccc(C(=O)OC)cc2)C1(C#N)C#N 6.81%
O=C(CCc1ccc(O)cc1)c1c(O)cc(O)cc1O[C@@H]1O[C@H](CO)[C@@H](O)[C@H](O)[C@H]1O -12.4%
CCC1C(=O)NCCN1Cc1ccc2c(c1)CN(Cc1cccn1-c1ccc(Cl)cn1)CCO2 (configuration not stated) 3.29%
CCNc1ncc2nc(-c3ccc(F)cc3)c(=O)n(-c3ccc(OC)cc3)c2n1 19.4%
C[C@]12CCC(=O)C=C1CC[C@@H]1[C@@H]2[C@@H](O)C[C@@]2(C)[C@H]1CC[C@]2(O)C(=O)CO 5.68% [at 75.8 µM]
CCC(=O)OC1C2CC3=C4CC(=O)OC(c5ccoc5)[C@]4(C)CCC3[C@@](C)(C2=O)C(CC(=O)OC)C1(C)C (some centres not stated) -8.44%
COc1cccc(-c2cncnc2NCc2cccs2)c1 8.95%
COCC(=O)N1CCC2(CCN(Cc3cc(C(F)(F)F)cc(C(F)(F)F)c3)CC2)CC1 15.9%
O=C(NCCc1cccnc1)c1cnn(-c2ncc3c(n2)-c2ccccc2CC3)c1C1CC1 18.3%
CCCC(=O)Nc1nc2c(ncn2[C@@H]2O[C@H]3COP(=O)(O)O[C@@H]3[C@@H]2OC(=O)CCC)c(=O)[nH]1 13.4%
CCNc1ncc2ncc(=O)n(CCOC)c2n1 14.9%
COc1ccccc1CNc1cc(-c2ccccc2CN(C)C)ncn1 11.1%
NCCC(O)C(=O)NC1C[C@@H](N)[C@H](O[C@@H]2OC(CN)C(O)C(O)C2O)C(O)[C@H]1O[C@H]1OC(CO)C(O)C(N)C1O (some centres not stated) 1.68%
O=c1cnc2cnc(Oc3ccccc3)nc2n1CCc1ccccc1 5.52%
COc1ccc(CNc2ccnc(-c3ccccc3CN(C)C)n2)c(OC)c1 -0.163%
O=C(O)CC(O)C(=O)O (configuration not stated) 18.1%
Cc1cnc(CNc2nc(-c3ccc(C(=O)N(C)C)cc3)nc3ccccc23)cn1 -11.7%
O=c1c(-c2cccs2)nc2cnc(Oc3ccccc3)nc2n1-c1ccccc1 15.1%
CCCCCCC[N+](CC)(CC)CCCCc1ccc(Cl)cc1 453% [at 75.8 µM]
CNCCCC1c2ccccc2C=Cc2ccccc21
COc1cccc(-c2cncnc2NCc2ccc(OC)cc2OC)c1 15.5%
CCNc1ncc2nc(-c3cccs3)c(=O)n(Cc3ccc(F)cc3)c2n1 21%
CCOC(=O)C1=C[C@@H](OC(CC)CC)[C@H](NC(C)=O)[C@@H](N)C1 18.2%
O=c1cnc2cnc(N3CCNCC3)nc2n1Cc1cccs1 18.9%
CCCCNC(=O)c1sc2ncnc(NCC3CCCO3)c2c1C (configuration not stated) 6.46%
COCCn1c(=O)c(-c2cccc(C#N)c2)nc2cnc(Oc3ccccc3)nc21 4.76%
COCCn1c(=O)c(-c2cc(F)cc(F)c2)nc2cnc(OC)nc21 12%
C=CC[n+]1cccc2cc(Br)ccc21 19.8%
COc1ccc(Oc2ncc3nc(-c4cc(F)cc(F)c4)c(=O)n(C[C@H]4CCCO4)c3n2)cc1 -19.2%
CC(C)(C)C(=O)Oc1ccc(S(=O)(=O)Nc2ccccc2C(=O)NCC(=O)O)cc1 13.4%
CC(C)Cc1nc2cc(NS(=O)(=O)N(C)C)cc(C(=O)N3CC4(C)CC3CC(C)(C)C4)c2n1C (configuration not stated) 9.93%
CSc1ccc2c(c1)C(N1CCN(C)CC1)Cc1ccccc1S2 (configuration not stated)
C[C@H]1COc2c(C3(N)CC3)c(F)cc3c(=O)c(C(=O)O)cn1c23 22.2%
CC(C(=O)O)c1ccc2c(c1)Cc1cccnc1O2 (configuration not stated) 13%
COc1ccccc1-c1ccnc(-n2ncc(C(=O)NCC3(N4CCOCC4)CCCC3)c2C)n1 -2.27%
CO[C@H]1[C@H](NC(=O)C(C)C)c2ccccc2C12CCN(Cc1cnc(N(C)C)s1)CC2 -2.94%
CCCCCCCCCCCCCCCCN 5.57%
COC(=O)C[C@H](NC(=O)[C@H](C)NC(=O)[C@@H](NC(=O)OCc1ccccc1)C(C)C)C(=O)CF (Cbz-Val-Ala-Asp(OMe)-CH2F) 15.6% [at 201 µM]
O=C1CCC(O)CCN1CCSc1ccccc1 (configuration not stated) 11.9%
C=C[C@](C)(O)CCC1C(=C)CC(O)C2C(C)(C)CCCC12C (some centres not stated) -20%
Cc1cnc(CNc2ncncc2-c2ccoc2)cn1 15.5%
O=C/C=C/c1ccc(O)cc1 7.33%
CC(=O)Nc1ccccc1
CCOC(=O)C[C@H]1c2ccc(C(F)(F)F)cc2S(=O)(=O)N1C(C)C -20.7%
COc1ccccc1-c1nccc(N2CCN(C)CC2)n1 1.96%
CCCN1C[C@H](CSC)C[C@@H]2c3cccc4[nH]cc(c34)C[C@H]21
COC(c1ccccc1)(c1ccccc1)[C@H](Oc1nc(C)cc(C)n1)C(=O)O 16.7%
O=C1CCC[C@@H]2CC(N(Cc3cc4ccccc4s3)c3ccccc3)C[C@@H]3CCN1[C@H]23 (some centres not stated) 4.08%
CC1(C)[C@@H]2CC[C@@]1(C)C(=O)C2
COC(=O)C1=C(C)NC(C)=C(C(=O)OCCN2CCN(C(c3ccccc3)c3ccccc3)CC2)C1c1cccc([N+](=O)[O-])c1 (configuration not stated) -15.8%
O=C(O[C@H]1[C@H](Cc2ccccc2)NS(=O)(=O)[C@H]2C[C@@H]3C=C[C@]12O3)c1ccccc1Br 1.13%

From PubChem BioAssay AID1645882 (National Center for Advancing Translational Sciences (NCATS), 2021)
